Experimental findings from patent US20100284992A1 (priority 2006, published 2010) are described below.

The assay deals with caspase-3 in HUVEC. As to the method:
The aspartate-specific cysteinyl proteases or caspases are a set of mediators implicated in apoptosis. The activation of caspase-3 in mammalian cells is a hallmark of apoptosis. To assess whether the mode of death induced by PlcHR2 was apoptotic or necrotic, caspase-3 activity was assayed with the colorimetric CaspACE Assay system (Promega, Madison, Wis.). The colorimetric substrate (Ac-DEVD-pNA) is hydrolyzed by activated caspase-3 releasing pNA producing a yellow color that is quantified at an absorbance of 405 nm. Camptothecin, a topoisomerase I inhibitor, was used as a positive control for activation of caspase-3 and induction of apoptosis. For inhibition of apoptosis Z-VAD-FMK was added to samples at a final concentration of 50 μM. HUVEC were cultivated in 6 well tissue culture dishes to 80-90% confluency at which time the media was exchanged with 2 ml of fresh media containing PlcHR2 or other compounds to be examined. The cultures were allowed to incubate at 37° C. in 5% CO2 for 3 to 16 hours. The cells were harvested by trypsin/EDTA treatment, washed with ice cold PBS and suspended in lysis buffer at a concentration of 1×10^8 cells/ml. […]
Both caspase-3 activation and LDH release were measured at 16 hours post treatment with increasing concentrations of PlcHR2. […]

The structures appear in SMILES notation. Where a SMILES comes first, the peptide text is derived from it. The star is where a group is joined. Cbz = O=C(OCc1ccccc1)*; CH2F = FC*

As to `CC[C@@]1(O)C(=O)OCc2c1cc1n(c2=O)Cc2cc3ccccc3nc2-1` [camptothecin], the “level of caspase-3 activity compared with 6.25 ng/ml PlcHR2” value is listed as “similar”.
Turning to `COC(=O)C[C@H](NC(=O)[C@H](C)NC(=O)[C@@H](NC(=O)OCc1ccccc1)C(C)C)C(=O)CF` [Z-VAD-FMK] (Cbz-Val-Ala-Asp(OMe)-CH2F), the “inhibition of PlcHR2 activation of caspase-3” value is reported as “inhibited substantially all PlcHR2 activation of caspase-3”.
